# From PubChem BioAssay AID1768 (National Center for Advancing Translational Sciences (NCATS), 2009)
# About 620 (0.23%) of roughly 270,000 compounds were called active. This list was built around the results that the source calls inconclusive (neither active nor inactive); the mix of calls is not that of the screen. Calls follow the shape of the dose curve; as a rule, active = well fitted inhibition curve with a large enough effect in the polarisation, with a control signal flat (not every such curve was filed as active); inconclusive = small, poorly fitted or top-dose-only effect, or effect the other way, or a change in a side signal; inactive = no such curve, though single readings can be large or run the other way; the % refers to the polarisation. Potencies beside an inconclusive call are fits to weak or partial responses and may not hold up. A note “side channel” means that the fit belongs to a control or component signal, not to the main read-out.
# Target: Menin (Homo sapiens) (UniProt O00255)
# Assay: qHTS Assay for Inhibitors Targeting the Menin-MLL Interaction in MLL Related Leukemias: Competition With Texas Red Labeled MLL-derived Mutant Peptide; as to FP activity change, negative = inhibition: % of control where 0% means no effect
# Conditions: fluorescence polarization; FP activity change, negative = inhibition: at 61.6 µM (top of the series)
# Potency is read from the fitted curve at half-maximal effect; tags tell the direction and shape of the fitted curve or compound fluorescence and quenching.
# Sequence of UniProt O00255 (O00255 whole entry, looked up): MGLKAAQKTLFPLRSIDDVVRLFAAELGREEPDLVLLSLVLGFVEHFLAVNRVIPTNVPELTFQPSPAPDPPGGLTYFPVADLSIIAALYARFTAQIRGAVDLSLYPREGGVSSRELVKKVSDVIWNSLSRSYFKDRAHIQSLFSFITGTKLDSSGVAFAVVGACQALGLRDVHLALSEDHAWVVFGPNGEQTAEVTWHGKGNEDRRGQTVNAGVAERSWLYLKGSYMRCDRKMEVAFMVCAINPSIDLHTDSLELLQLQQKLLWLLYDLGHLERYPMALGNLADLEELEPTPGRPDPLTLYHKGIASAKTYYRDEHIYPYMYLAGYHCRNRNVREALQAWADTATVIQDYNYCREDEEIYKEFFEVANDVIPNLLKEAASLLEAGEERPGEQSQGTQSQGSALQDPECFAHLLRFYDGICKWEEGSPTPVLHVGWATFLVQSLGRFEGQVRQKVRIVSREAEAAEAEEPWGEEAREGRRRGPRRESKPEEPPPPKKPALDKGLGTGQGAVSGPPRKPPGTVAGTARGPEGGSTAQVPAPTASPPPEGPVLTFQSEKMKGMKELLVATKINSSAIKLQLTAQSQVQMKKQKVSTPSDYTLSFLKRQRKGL
SMILES,Potency,"FP activity change, negative = inhibition"
CN1CCN(CC(O)COc2ccc(C34CC5CC(CC(C5)C3)C4)cc2)CC1 (configuration not stated),"inconclusive: 11.2 µM [fluorescent, side channel, partial curve]",–
NC(=O)C[n+]1cccc2ccccc21,inactive,–
CCOC(=O)C1CCN(c2ncnc3c2[nH]c2cccc(OC)c23)CC1,inactive,–
CCOC(=O)C1CCN(S(=O)(=O)c2ccc(OC)c(C(=O)N3CCCCCC3)c2)CC1,"inconclusive: 39.8 µM [fluorescent, single point]",–
C(=N\Nc1nn[nH]n1)/c1ccccc1,inactive,–
COc1cc(CNc2ccc3[nH]c(=O)[nH]c3c2)ccc1OCc1cccc(C)c1,"inconclusive: 12.6 µM [quencher, side channel, partial curve]",–
CC(CCC(=O)O)C1CCC2C3CC[C@H]4CC(O)CC[C@@]4(C)C3C=C[C@]12C (some centres not stated),"inconclusive: 3.55 µM [inhibitor, full curve]",–
CCCC1=Nc2cc(C(=O)N3CCC(C(=O)OCC)CC3)ccc2Sc2ccccc21,"inconclusive: 1.26 µM [fluorescent, side channel, full curve]",–
Cc1ccc(C)c(Cn2cnc3c(cnn3C(C)(C)C)c2=O)c1,"inconclusive: 7.08 µM [fluorescent, side channel, full curve]",–
CCN=c1scc(-c2ccco2)n1/N=C/c1ccc(O)cc1,"inconclusive: 11.2 µM [quencher, side channel, partial curve]",–
CCOC(=O)N1CCC(n2c(SCC(=O)Nc3ccccc3OC)nc3ccccc3c2=O)CC1,"inconclusive: 2.24 µM [inhibitor, partial curve]",–
Oc1cc2c(cc1C(c1ccc(Br)cc1)N1CCCC1)OCO2 (configuration not stated),"inconclusive: 35.5 µM [quencher, side channel, single point]",–
Cc1cc2nc(-c3ccc(=O)[nH]c3)n(Cc3ccccc3)c2cc1C,"inconclusive: 15.8 µM [fluorescent, side channel, partial curve]",–
CC1(C)Cc2c(c(N3CCOCC3)nc3sc(-c4ccc(C(=O)O)o4)c(N)c23)CO1,"inconclusive: 17.8 µM [quencher, side channel, partial curve]",–
CC[C@H](NC(=O)[C@H](CCCN=C(N)N)NC(=O)[C@H](Cc1c[nH]c2ccccc12)NC(=O)[C@@H](N)CS)C(=O)N[C@@H](CCCN=C(N)N)C(=O)N[C@@H](Cc1ccc(O)cc1)C(N)=O,"inconclusive: 39.8 µM [inhibitor, partial curve, poor fit]",–
Cc1ccc(CN2CCN(C(=O)CCC(=O)Nc3nnc(C(C)C)s3)CC2)c(C)c1,"inconclusive: 2.82 µM [inhibitor, full curve]",–
CCOc1ccc(CN(C)C(C)C(=O)NCc2ccccc2)cc1 (configuration not stated),"inconclusive: 35.5 µM [inhibitor, partial curve]",–
O=S(=O)(Nc1ncnc2sc3c(c12)CCC3)c1ccc(Cl)s1,"inconclusive: 39.8 µM [quencher, side channel, single point]",–
COc1ccccc1/C=N/NC(=O)CC(=O)Nc1ccc(Cl)c(Cl)c1,"inconclusive: 35.5 µM [inhibitor, single point]",–

SMILES,Potency,"FP activity change, negative = inhibition"
CCOc1cc(N2CCOCC2)c(OCC)cc1NC(=O)CN1CCc2ccccc2C1,"inconclusive: 14.1 µM [inhibitor, partial curve]",–
CC(C)c1ccc2oc(-c3cc(N)ccc3O)nc2c1,"inconclusive: 22.4 µM [quencher, side channel, partial curve]",–
Cc1ccc(NC(=O)CSc2ccccc2NC(=O)c2ccccc2)cc1Cl,"inconclusive: 10 µM [quencher, side channel, partial curve]",–
O=C(C1=C[C@H](c2ccccc2)C[C@H](OCCCCO)O1)N1CCN(Cc2ccccc2)CC1,"inconclusive: 14.1 µM [fluorescent, side channel, partial curve, poor fit]",–
Cc1nnc2sc(COc3ccccc3)nn2c1=O,"inconclusive: 28.2 µM [quencher, side channel, single point]",–
O=[N+]([O-])c1ccc2c(c1Nc1ccccc1)=NC1(CCCCC1)N=2,"inconclusive: 7.08 µM [quencher, side channel, partial curve]",–
CC1(N2CCOCC2)CC2(O)C(=[N+]1[O-])CCc1nonc12 (configuration not stated),"inconclusive: 28.2 µM [quencher, side channel, single point]",–
CCCN1C(=O)S/C(=C\c2ccc(N3CCOCC3)o2)C1=O,inactive,–
Nc1ccc(C(=O)N/N=C\c2cc(N=Nc3cccc4ccccc34)ccc2O)cc1,"inconclusive: 3.16 µM [quencher, side channel, full curve]",–
CCOC(=O)c1sc2nc(C)cc(C)c2c1N,inactive,–
CCOC(=O)c1c(NS(=O)(=O)c2cccc(OC)c2)sc2c1CCC2,"inconclusive: 31.6 µM [quencher, side channel, single point]",–
COc1ccc(/C=C/C(=O)Nc2ccncc2)cc1OC,inactive,–
Cc1cccc(NC(=O)Nc2ccncc2)c1,inactive,–
O=C(Oc1cccc2cccnc12)c1ccc(Br)o1,inactive,–
O=C(NCCO)c1ccc2nc(-c3ccco3)c(-c3ccco3)nc2c1,"inconclusive: 20 µM [quencher, side channel, partial curve]",–
O=[N+]([O-])c1ccc(/C([O-])=C(/C(=S)Nc2ccccc2F)[n+]2ccccc2)cc1,"inconclusive: 28.2 µM [quencher, side channel, single point]",–
CCn1c(-c2ccccc2Cl)nn(CC(=O)Nc2ccc(OC)cc2)c1=S,"inconclusive: 35.5 µM [fluorescent, side channel, single point]",–
CC(C)OCC(O)CSc1ccccn1 (configuration not stated),"inconclusive: 3.16 µM [inhibitor, partial curve]",–
O=C(c1n[nH]c2ccccc12)N1CCN(S(=O)(=O)c2ccc3ccccc3c2)CC1,"inconclusive: 39.8 µM [inhibitor, single point]",–

SMILES,Potency,"FP activity change, negative = inhibition"
COc1ccc(Nc2oc(COc3ccc(Cl)cc3)nc2C#N)cc1,"inconclusive: 12.6 µM [quencher, side channel, partial curve]",–
COc1ccc2nc(NC(=O)c3cccc(S(=O)(=O)N4CCOCC4)c3)sc2c1,"inconclusive: 8.91 µM [quencher, side channel, partial curve]",–
COc1ccc2oc(/C=C/N(C)C)c(C(=O)c3ccc(Cl)cc3)c2c1,"inconclusive: 7.08 µM [quencher, side channel, full curve]",–
COc1ccc2c(c1[N+](=O)[O-])CCC/C2=N/OC(=O)c1cccc2ccccc12,"inconclusive: 14.1 µM [quencher, side channel, partial curve]",–
O=C(CN1CCCC1)Nc1ccc(-c2nc3cc(NC(=O)CN4CCCC4)ccc3o2)cc1,"inconclusive: 1.78 µM [inhibitor, partial curve, poor fit]",–
COc1ccc(CCNC(=O)CCSc2nc(-c3ccco3)cc(C(F)(F)F)n2)cc1,"inconclusive: 14.1 µM [fluorescent, side channel, partial curve]",–
CN1C(=S)N(c2cccnc2)C(=O)/C1=C\c1ccc(N(C)C)cc1,"inconclusive: 39.8 µM [fluorescent, side channel, single point]",–
COc1ccc(-c2nn(-c3ccccc3)cc2C(=O)Nc2cccc(C(=O)O)c2)cc1[N+](=O)[O-],"inconclusive: 14.1 µM [quencher, side channel, partial curve]",–
CS(=O)(=O)Nc1ccc(C(=O)CC(=O)Nc2ccc([N+](=O)[O-])cc2)cc1,"inconclusive: 22.4 µM [quencher, side channel, single point]",–
C#CC(=O)N(c1ccc(OC)cc1OC)C(C(=O)NC1CCCC1)c1cccs1 (configuration not stated),"inconclusive: 17.8 µM [fluorescent, side channel, partial curve, poor fit]",–
O=C(Nc1cccc(-n2cnnn2)c1)c1cc(Cl)nc(Cl)c1,"inconclusive: 28.2 µM [quencher, partial curve]",–
Cc1cc(Cl)c2oc(C(=O)N(C)C3CCOC3)c(C)c2c1 (configuration not stated),"inconclusive: 15.8 µM [fluorescent, side channel, partial curve]",–
Cc1ccc(C)c(S(=O)(=O)NCC(=O)Nc2sc3c(c2C(N)=O)CCC(C)C3)c1 (configuration not stated),"inconclusive: 39.8 µM [inhibitor, partial curve]",–
CC1CCN(C(=O)C2CCN(S(=O)(=O)N3CCC4(CC3)OCCO4)CC2)CC1,"inconclusive: 7.94 µM [inhibitor, full curve]",–
CCOc1ccc(N(Cc2cc3cc(C)ccc3[nH]c2=O)C(=O)COC)cc1,"inconclusive: 28.2 µM [inhibitor, partial curve]",–
Cc1ccccc1OC1C=CC(c2ccccc2)OC1CO (configuration not stated),–,inactive: -3.94% [at 11.7 µM]
O=C(Nc1ccccc1O)c1ccc(NS(=O)(=O)c2cccc3cccnc23)cc1,"inconclusive: 25.1 µM [quencher, side channel, partial curve]",–
CC(=O)Nc1ccc(NC(=O)CC2Nc3cccc4cccc(c34)NC2=O)cc1 (configuration not stated),"inconclusive: 25.1 µM [quencher, side channel, single point]",–
CCOC(=O)c1c(C)n(-c2ccc(C)cc2)c2ccc(OCC(O)CNCCCO)cc12 (configuration not stated),"inconclusive: 1.26 µM [fluorescent, side channel, full curve]",–
